“Also recorded” adds a separate entry of the source.
Experiments:
[1] = test system: anti-DSG2 antibodies in ARVC patient serum samples with strong clinical data; test: Anti-DSG2 antibody MSD-based detection assay on ARVC patient serum, blocked by competing DSG2 polypeptide; format: binding, human; conditions: competing DSG2 polypeptide added
[2] = test system: human iPSC cardiomyocytes; test: iPSC-derived cardiomyocyte MEA assay, cell index; format: cell-based; conditions: addition of DSG2FP #1; FIG. 6
anti-DSG2 antibody = test: Anti-DSG2 antibody Meso Scale Discovery (MSD) blocking assay, anti-DSG2 antibody controls; format: binding; conditions: for % inhibition: fraction C
Description: (§1) The DSG2 fusion polypeptides were tested for the ability to block anti-DSG2 antibody by an anti-DSG2 antibody Meso Scale Discovery (MSD) assay. […] The DSG2 fusion polypeptides were subjected to size exclusion chromatography and different elution fractions were examined. […] As shown in Table 9 and FIG. 4B, FIG. 4C, and FIG. 4D, enriching for fraction C improved the ability of the DSG2 fusion polypeptides to block ARVC patient serum.

[3] = test system: human iPSC cardiomyocytes; test: CiPA multielectrode array (MEA) assay, cardiomyocyte sodium spike; format: cell-based; conditions: 1.1 μg/mL DSG2FP #1; anti-DSG2 antibodies 0.5 μg/mL; FIG. 5A
Description: To determine the effect of anti-DSG2 antibodies in cardiomyocytes, the cardiac in vitro proarrhythmia (CiPA) assay was performed (Sager et al. Am Heart J 2014; 167:292-300; the contents of which are herein incorporated by reference in its entirety). CiPA is envisioned to consist of four components: (1) an evaluation of the effects of test agents on cardiac ion channel assays; (2) in silico modeling of the cardiac action potential based on the ion channel results to integrate the data with cardiac function; (3) experimental measurement of test agent effects in human ventricular myocytes to confirm the modeling result; and (4) scoring the results. […] The sodium spike quantified below is a measurement of the specific sodium channel current in the cardiomyocyte and is also described in Blinova K, et al. Cell Rep. […] The parameters evaluated include measuring a change in the spike in the component of electrical signal propagation (e.g. sodium spike) and cell index—a function of cell impedance and cell number. […]
Commercially available anti-DSG2 antibodies were tested in the cardiomyocyte CiPA assay. […] The voltage (μV) is measured at time intervals of 0, 1 hour, 12 hours, 24 hours, 48 hours, 72 hours, and 96 hours. […]

[4] = test system: anti-DSG2 antibodies in sera of post-COVID-19 patients; test: Electrochemical immunoassay: blocking of post-COVID-19 patient sera binding to the DSG2 extracellular domain; parameters: species or system human; conditions: fusion polypeptide 10 μg/mL; post-COVID-19 patient sera 10% (v/v); FIG. 3
[5] = Dynamic light scattering (DLS) of DSG2 fusion polypeptides; format: physicochemical
From the text: 6 candidates were compared to the reference sample.

[6] = test system: ARVC serum (serum obtained from ARVC patients); test: Anti-DSG2 antibody Meso Scale Discovery (MSD) blocking assay, ARVC serum; format: binding, human; conditions: for % inhibition: fraction C
Description: as §1

[7] = test system: anti-DSG2 antibodies in sera of ARVC patients; test: Electrochemical immunoassay: blocking of ARVC patient sera binding to the DSG2 extracellular domain; parameters: species or system human; conditions: fusion polypeptide 5 μg/mL; ARVC patient sera 10% (v/v); FIG. 8
[8] = Melting temperature Tm of DSG2 fusion polypeptides; format: physicochemical
From the text: As the temperature increased, the aggregates began to move, unfold and spread apart.

B1: DSG2FP#1 (protein)
chain: AWITAPVALREGEDLSKKNPIAKIHSDLAEERGLKITYKYTGKGITEPPFGIFVFNKDTGELNVTSILDREETPFFLLTGYALDARGNNVEKPLELRIKVLDINDNEPVFTQDVFVGSVEELSAAHTLVMKINATDADEPNTLNSKISYRIVSLEPAYPPVFYLNKDTGEIYTTSVTLDREEHSSYTLTVEARDGNGEVTDKPVKQAQVQIRILDVNDNIPVVENKVLEGMVEENQVNVEVTRIKVFDADEIGSDNWLANFTFASGNEGGYFHIETDAQTNEGIVTLIKEVDYEEMKNLDFSVIVANKAAFHKSIRSKYKPTPIPIKVKVKNVKEGIHFKSSVISIYVSESMDRSSKGQIIGNFQAFDEDTGLPAHARYVKLEDRDNWISVDSVTSEIKLAKLPDFESRYVQNGTYTVKIVAISEDYPRKTITGTVLINVEDINDNCPTLIEPVQTICHDAEYVNVTAEDLDGHPNSGPFSFSVIDKPPGMAEKWKIARQESTSVLLQQSEKKLGRSEIQFLISDNQGFSCPEKQVLTLTVCEVLHGSGCREAQHDSYVGIEGRM[sequence of human IgG1 Fc omitted]
blocking of assay signal from ARVC patient serum samples [1]: blocked | reversal of effects of anti-DSG2 antibodies on cell index [2]: reversed; also recorded: completely blocks the effect of the anti-DSG2 antibodies | ability to bind to and block anti-DSG2 antibody (anti-DSG2 antibody; MSD assay): able to bind and block anti-DSG2 antibody | % inhibition (anti-DSG2 antibody; sample: Anti-DSG2 antibody (200 ng/mL) control): 63.8% | % inhibition (anti-DSG2 antibody; sample: Anti-DSG2 antibody (1000 ng/mL) control): 88.4% | % inhibition (anti-DSG2 antibody; sample: no antibody control): 4.8% | rescue of the effect of anti-DSG2 antibodies on cardiomyocyte sodium spike [3]: rescued; also recorded: completely blocks the effect of the anti-DSG2 antibodies on the sodium spike | blocking activity (in words) [4]: best blocking activity | Peak 1 mass % [5]: ~97% | Peak 1 mode diameter [5]: 18.13 nm | PDI ([5]; polymer distribution index): 0.33 | ability to bind and block serum obtained from ARVC patients ([6]; MSD assay, FIG. 4A): able to bind and block | % inhibition ([6]; sample: ARVC serum 1): 96.7% | % inhibition ([6]; sample: ARVC serum 2): 82.9% | % inhibition ([6]; sample: ARVC serum 3): 95.8% | % inhibition ([6]; sample: ARVC serum 4): 95.7% | % inhibition ([6]; sample: ARVC serum 5): 93.1% | blocking activity (in words) [7]: best blocking activity | Tm1 [8]: 49.9 °C | Tm2 [8]: 64.1 °C | Tm3 [8]: 77.5 °C
